Whole data set: some 81,000 sequences, median “one-hybrid fitness for binding parS DNA” near -0.17, cut for the highest 2% near 0.51. The list shows a part of the results.
B1: Caulobacter ParB omega fusion; a variant is named by its letters at X, in order, B8GW30 (parent)
chain: MESVVVGEPGMSEGRRGLGRGLSALLGEVDAAPAQAPGEQLGGSREAPIEILQRNPDQPRRTFREEDLEDLSNSIREKGVLQPILVRPSPDTAGEYQIVAGERAWRAAQRAGLKTVPIMVRELDDLAVLEIGIIENVQRADLNVLEEALSYKVLMEKFERTQENIAQTIGKSXSHVANXMRLLXLPDEVQSYLVSGELTAXHARAIAAAADPVALAKQIIEGGLSVRETEALARKAPNLSAGKSKGGRPPRVKDTDTQALESDLSSVLGLDVSIDHRGSTGTLTITYATLEQLDDLCNRLTRGI

Variants of: B1
Assay: one-hybrid fitness for binding parS DNA (scaled: cognate 1, non-cognate 0); higher = stronger binding
Conditions: with parS DNA site
Procedure, shortened: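 In E. coli USO, a HIS3 reporter with its site placed 19 bp from the promoter was used to select Caulobacter ParB variants randomised at four specificity codons. Growth lasted 48 hours at 37°C on histidine-free M9 containing 0.1 mM IPTG and 5 mM 3-AT. Fitness was taken as the log change in variant-to-wild-type read ratio from Illumina sequencing of pre- and post-selection plasmids, rescaled between the non-cognate and cognate sites.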

one-hybrid fitness for binding parS DNA, ≤ 0.2:
RPRN
CRGC
WFYS
EATC
FDCR
NSDF
PWTG
TMMV
DMHT
FYCT
PPTM
LIHG
ICLS
PKIM
QVTH
HGDH
MAIG
PGSY
PRKT
FPAC
FSSA
FRHT
APTL
LRFY
NLLE
FHLS
LRAM
QAKN
FDPN
KQIR
ADDR
CKWT
IDHR
GRLR
NGER
RTAD
TNRH
HVRV
QHYL
TGNV
TWMD
CIMC
ASFV
KDQA
PTAW
PVVM
MTEN
TIQL
QLRV
WLAV
EPAD
SCLH
AGTQ
IEFV
PSPT
REYN
AAPF
DMMR
GRRG
GSDE
HQRW
FYSS
RWTV
VYYR
WMAC
CYSI
VIPE
LGTY
TTVP
HGME
GGGK
TAYD
MDQR
EHNF
VGQC
MGAC
QACM
IAWL
NMLR
FGSC
CINY
AMRY
PTLK
LAPR
YLRV
ILSG
QVYS
EQNS
AIAA
WLAA
TMMN
WSRA
HFPD
PNQR

one-hybrid fitness for binding parS DNA, 0.282:
RGWA

one-hybrid fitness for binding parS DNA, 0.281:
RIVM

one-hybrid fitness for binding parS DNA, 0.544:
RQWA

one-hybrid fitness for binding parS DNA, 0.878:
RHDC

From a collection of fitness landscapes (doi:10.1016/j.celrep.2020.107928)
